The whole screen tested about 52,000 compounds, of which about 4,300 (8.3%) were called active. Rule as the data show it: active = survival mostly below about 52% (no sharp cut-off); inactive = mostly above about 56%. The list shows a part of the results.
Tested on: DeltatarO mutant
Experiment: S. aureus survival, RN4220 and DeltatarO strains – OD600, teichoic acid synthesis inhibitors, primary screen (AID 463173)
Details: S. aureus RN4220 wild type/DeltatarO growth, OD600, 18 h, active compounds read low, screened at 18.75 µg/mL (by protocol)

SMILES	survival
O=C(OCc1ccccc1Cl)c1ccc(-c2nnn(Cc3ccc(F)cc3)n2)cc1	inactive: 130%
Cc1nn2c(=O)cc(COc3ccc(/C=C(\C#N)C(=O)Nc4ccccc4)cc3Cl)nc2s1	active: 49%
O=c1oc2ccccc2cc1-c1nc2c(s1)CCCC2	inactive: 100%
Brc1ccc2c(c1)NC(c1cccnc1)=NC(c1ccccc1)=N2	inactive: 96%
CCOc1ccccc1C(=O)N1CC(=O)Nc2ccc(C)cc2C1c1ccccc1 (stereo unspecified)	inactive: 144%
COc1ccc(NC(=O)Nc2cc(-c3cn4cccnc4n3)ccc2OC)cc1	inactive: 95%
CCOc1ccccc1NC(=O)N1CCc2c(sc3c2CCCC3)C1c1ccccc1 (stereo unspecified)	inactive: 94%
CCCOc1ccc(C2c3c(-c4ccccc4O)n[nH]c3C(=O)N2Cc2cccnc2)cc1 (stereo unspecified)	active: 3%
NC(Cc1c[nH]c2ccccc12)C(=O)NCc1ccccc1 (stereo unspecified)	inactive: 92%
CC(C)OCCCn1c(=O)c2ccccc2n2c(-c3cc(Cl)ccc3O)nnc12	inactive: 89%
COc1cc(C(=O)Nc2ccc(-c3nc4ccccc4o3)c(O)c2)cc(OC)c1OC	inactive: 128%
Cc1cn2c(=O)cc(COC(=O)c3ccc(NC(=O)COc4ccc(C)c(C)c4)cc3)nc2s1	inactive: 91%
COc1cc2c(cc1OC)C(COc1ccc(F)cc1)N(C(=O)Cc1ccccc1)CC2 (stereo unspecified)	inactive: 87%
CCOc1ccc(-c2cc(C(=O)NCCCOC)c3c(-c4ccc(CC)cc4)[nH]nc3n2)cc1	inactive: 79%
COC(=O)c1ccccc1NC(=O)c1cc(CN2CCOCC2)on1	inactive: 97%
CCOC(=O)c1csc2c1CCC/C2=N/OC(C)=O	inactive: 86%
CCc1cccc(C)c1Nc1c(-c2cccs2)nc2nc(C)cc(C)n12	inactive: 75%
COc1ccc(-c2cc3nc(C)c(CCC(=O)N4CCN(c5ccccc5F)CC4)c(C)n3n2)c(OC)c1	inactive: 68%
Cc1ccc(NC(=O)Cn2c(=O)oc3cc(S(=O)(=O)N4CCCCC4)ccc32)c(C)c1	inactive: 81%
CCC(=O)Nc1ccc(CC)cc1-c1nc2ccccc2n(CC(=O)Nc2ccccc2C)c1=O	inactive: 88%
N#Cc1c2c(c(-n3ccnc3)n3c1nc1ccccc13)CCC2	inactive: 104%
COc1ccc(-c2onc(C)c2C)cc1S(=O)(=O)Nc1cc(Cl)ccc1C	inactive: 86%
CC(=C1C(=O)c2ccccc2C1=O)N1CCN(CCO)CC1	inactive: 96%

SMILES	survival
O=C(CSc1nc2ccccc2nc1Cc1ccccc1F)Nc1cccc(C(F)(F)F)c1	active: 35%
CCN(CC)c1ccc(NC(=O)CCS(=O)(=O)c2ccc3c(c2)oc(=O)n3C)c(C)c1	inactive: 73%
Cc1ccc(CNc2ncnc3onc(C)c23)cc1	inactive: 116%
O=C(NCc1cccs1)C1CCN(c2ccc(S(=O)(=O)N3CCOCC3)cc2Cl)CC1	inactive: 69%
CCn1c(=O)cc(OCC(=O)N2CCN(c3cccc(Cl)c3)CC2)c2ccccc21	inactive: 116%
CCCOc1ccc(NC(=O)CC2C(=O)N(c3ccc(F)cc3)C(=O)N2CC(C)C)cc1 (stereo unspecified)	inactive: 64%
CCCCOc1ccc(CNC(=O)C2CCCN(c3nnc(-n4c(C)ccc4C)s3)C2)cc1 (stereo unspecified)	inactive: 87%
NC(=O)c1cc(N)ccc1N1CCOCC1	inactive: 67%
COc1cc(C(=O)N2CCC(c3nc4ccccc4s3)CC2)cc(OC)c1OC	inactive: 74%
Cc1ccc2c(c1)sc1nc(=O)n(-c3ccc(Cl)c(Cl)c3)c(=O)n12	active: -6%
COc1ccc(C2=C(C)C(=NCc3ccc(OC(C)C)cc3)NS2(=O)=O)cc1	inactive: 91%
Cc1ccc(S(=O)(=O)N2CCN(Cc3ccc4c(c3)OCO4)CC2)cc1	inactive: 70%
CCc1ccc(-c2cc(C)no2)cc1S(=O)(=O)Nc1cc(OC)c(OC)c(OC)c1	inactive: 94%
CCn1c(=O)c2sccc2n2c(CCC(=O)Nc3ccc(OC)cc3OC)nnc12	inactive: 82%
CCc1ccccc1NC(=O)CN1C(=O)c2cccnc2Sc2ccccc21	inactive: 86%
Cc1ccc(Cn2c(CNC(=O)Cc3cccc([N+](=O)[O-])c3)nc3cccnc32)cc1	inactive: 70%
NC(=O)NC(=O)c1nc2nonc2[nH]c1=O	inactive: 91%
CC(NC(=O)CSc1nc(-c2cccc(Cl)c2)nc2cc(=O)[nH]n12)c1nc2ccccc2n1C (stereo unspecified)	inactive: 68%
COc1ccc(-c2nc3ccccc3s2)cc1NC(=O)c1cccc([N+](=O)[O-])c1C	active: 38%
O=c1c2ccccc2n(Cc2c(F)cccc2Cl)c(=O)n1Cc1ccccc1	inactive: 56%
CCn1c(=N)c(C(=O)NCC2CCCO2)cc2c(=O)n3cc(C)ccc3nc21 (stereo unspecified)	inactive: 66%
O=S(=O)(NCC(c1ccccc1)N1CCc2ccccc21)c1ccccc1 (stereo unspecified)	inactive: 89%
CCn1cc(C(=O)NCCc2ccc(Cl)cc2)c(=O)c2cc(S(=O)(=O)N3CCCCCC3)ccc21	inactive: 65%

SMILES	survival
Cc1ccc2c(=O)c(C(=O)c3ccccc3)cn(CC(=O)Nc3ccccc3C)c2n1	inactive: 66%
COc1cc(NC(=O)Cn2cnc3sc(C)c(S(=O)(=O)N4CCC(C)CC4)c3c2=O)cc(OC)c1OC	inactive: 111%
CC(CN1CCOCC1)OC(=O)C1c2ccccc2Oc2ccccc21 (stereo unspecified)	inactive: 81%
Cc1nc(-c2ccc(S(=O)(=O)NCc3ccc(OC(C)C)cc3)cc2)co1	inactive: 94%
O=C(COc1ccccc1F)Nc1ccc2nc(SCC(=O)N3CCCC3)sc2c1	inactive: 69%
COc1ccc(C(=O)NCCn2cc(SCC(=O)Nc3ccc(F)cc3)c3ccccc32)cc1	inactive: 52%
O=C(NC1CCN(C(=O)Nc2cccc(Cl)c2)CC1)C1CCCCC1	inactive: 58%
CC(C)(C)NC(=O)CSc1nc(O)cc(=O)[nH]1	inactive: 68%
CCNc1ccc(-c2nc(-c3ccncc3)no2)cc1[N+](=O)[O-]	inactive: 79%
CSc1ncc(Cl)c(C(=O)Nc2c(C(=O)c3ccc(C)c(F)c3)oc3ccccc23)n1	inactive: 86%
COc1cccc(NC(=O)CCc2nc(-c3cccs3)no2)c1	inactive: 75%
CCC1CCCCN1C(=O)c1cc(Cl)ccc1OC (stereo unspecified)	inactive: 97%
CCOc1ccc(C2C(=O)N(C3CCCCC3)CC(=O)N2CCC2=CCCCC2)cc1OC (stereo unspecified)	inactive: 87%
O=C(O)c1ccc2nccnc2c1	inactive: 90%
CCOc1ccc(C(=O)c2cn(CC(=O)Nc3ccc(F)c(F)c3)c3cc4c(cc3c2=O)OCCO4)cc1	inactive: 130%
CCS/C(=C(\C#N)C(N)=O)c1ccc(-c2ccccc2)[nH]1	inactive: 59%
CCOc1ccccc1C(=O)Nc1ccc2nc3c(c(Nc4ccc(OC)c(OC)c4)c2c1)CCCC3	inactive: 58%
O=C(NCc1ccc(F)cc1)c1ccc2c(c1)nc1n2CCCCC1	inactive: 80%
O=C(Nc1ccccc1)c1ccc2c(O)c(S(=O)(=O)c3ccc(Cl)cc3)c(=O)[nH]c2c1	inactive: 74%
Cc1ccc(-c2ccc(C#N)c(=O)n2CC(=O)N2CCNC(=O)C2(C)C)cc1	inactive: 88%
Cc1cc(Nc2cccc(Cl)c2)nc2ccc(NC(=O)c3cccc(N(C)C)c3)cc12	inactive: 106%
COc1ccc(-c2noc(-c3nnn(-c4ccc(C(C)C)cc4)c3C)n2)cc1OC	inactive: 67%
Cc1cc(O)c2c(C)c(CC(=O)N3CCCCC3)c(=O)oc2c1	inactive: 69%

SMILES	survival
CCOC(=O)c1ccc(NC(=O)CN2Cc3ccccc3C2=O)cc1	inactive: 94%
COc1ccccc1C(=O)Nc1onc2c1CCCC2	inactive: 77%
COc1cccc(CNC(=O)C(Cc2ccccc2)NS(=O)(=O)c2ccc3c(c2)oc(=O)n3C)c1 (stereo unspecified)	inactive: 72%
Cc1cccc(OC(=O)c2cc(-c3ccc4c(c3)OCCO4)on2)c1C	active: -1%
Cn1c(=O)c(C2=NS(=O)(=O)c3ccccc3N2)c(O)c2ccccc21	inactive: 77%
Cc1cccc(N2CCN(c3ccc(NC(=O)c4ccccc4)cc3C(=O)O)CC2C)c1 (stereo unspecified)	inactive: 81%
Cc1cccc(NC(=O)c2ccc3nc(CCc4ccccc4)oc3c2)c1C	inactive: 74%
CCn1c(CNC(=O)C(OC)c2ccccc2)nnc1SC (stereo unspecified)	inactive: 87%
CCc1ccc(NC(=O)N2CCC(N3CCN(Cc4ccc(C)cc4)C(=O)C3=O)CC2)cc1	inactive: 124%
COc1ccc(-c2cc3nccc(-c4cc(Cl)c(C)cc4O)n3n2)cc1	inactive: 85%
CC(C)(C#N)Nc1ccccc1	inactive: 78%
CCn1c(C(=O)N2CCCC(C(=O)N3CCN(c4ccccc4)CC3)C2)cc2sccc21 (stereo unspecified)	inactive: 66%
CCOc1ccccc1C1C(C(=O)Nc2ccccc2)=C(C)Nc2c(C(=O)Nc3ccc(F)cc3)cnn21 (stereo unspecified)	inactive: 82%
CCn1cc(C(=O)N2CCN(c3ccc(OC)cc3)CC2)c2cc(OC)c(OC)cc2c1=O	inactive: 58%
O=C(CSc1ncccn1)n1c2c(c3ccccc31)CCCC2	inactive: 96%
O=S(=O)(c1ccc2nc(Nc3cccc(F)c3)ccc2c1)N1CCCC1	inactive: 72%
CCOc1ccc(-c2cccc(NS(=O)(=O)c3ccccc3C(F)(F)F)c2)nn1	inactive: 91%
CCOc1ccc(NC(=O)C2CC(=O)NC(=Nc3ccccc3)S2)cc1 (stereo unspecified)	inactive: 78%
Cc1ccc(S(=O)(=O)NCC(Nc2cccc(Cl)c2)c2ccccc2)cc1 (stereo unspecified)	inactive: 66%
Cc1ccccc1Cn1c2ccccc2c2cnn(CC(=O)N3CCC(C)CC3)c(=O)c21	inactive: 41%
Cc1ccc(S(=O)(=O)NCC(c2ccc(N(C)C)cc2)N2CCc3ccccc32)cc1 (stereo unspecified)	active: 0%
CCCCSCCCNC(=O)c1c[nH]c2ccc(S(=O)(=O)Nc3cccc(OC)c3)cc2c1=O	inactive: 90%
